Laboratory results: the supplement of paper PMC4967469
pIC50: −log10 of the molar value. Lines with a small IC50 respond at low doses; where the fit passes the top or lowest dose, that dose stands as a limit. The AUC spans the tested range (256-fold, ending at the top dose) of the same fit; the more sensitive the line, the further below 1. For part of these data: Any top dose called inferred was calculated from the reported fits.

Tests used:
Test in all cases: Viability of human cancer cell lines after 72 h of drug (GDSC screen)
AZD7762 = compound: NC(=O)Nc1cc(-c2cccc(F)c2)sc1C(=O)N[C@H]1CCCNC1 [AZD7762]; settings: top dose 2 µM
Procedure: (§1)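 Human cancer cell lines in 384-well plates, medium with 10% serum, drug for 72 h over a 256-fold dose range (nine 2-fold or five 4-fold steps up to the top dose). Adherent lines were fixed and stained with the nucleic acid dye Syto60, suspension lines read with resazurin; signal relative to control wells, capped at 0 and 100%. One two-parameter sigmoid per drug and line, fitted in a mixed model over all curves with the slope shared within a line.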

XAV 939 = compound: Oc1nc(-c2ccc(C(F)(F)F)cc2)nc2c1CSCC2 [XAV 939]; settings: top dose 5 µM; top dose inferred
Procedure: as §1

YK 4-279 = compound: COc1ccc(C(=O)CC2(O)C(=O)Nc3c(Cl)ccc(Cl)c32)cc1 [YK 4-279]; settings: top dose 10 µM
Procedure: as §1

BMS-345541 = compound: Cc1ccc2nc(NCCN)c3ncc(C)n3c2c1 [BMS-345541]; settings: top dose 16 µM
Procedure: as §1

NPK76-II-72-1 = compound: COc1cc(C(=O)NC2CCN(C)CC2)ccc1Nc1ncc2c(n1)N(C1CCCC1)C(C)CC(=O)N2C [NPK76-II-72-1]; settings: top dose 10.24 µM; top dose inferred
Procedure: as §1

| Cell Line | AUC (AZD7762) | pIC50 (AZD7762) | AUC (XAV 939) | pIC50 (XAV 939) | AUC (YK 4-279) | pIC50 (YK 4-279) | AUC (BMS-345541) | pIC50 (BMS-345541) | AUC (NPK76-II-72-1) | pIC50 (NPK76-II-72-1) |
| --- | --- | --- | --- | --- | --- | --- | --- | --- | --- | --- |
| BALL-1 (B-cell leukaemia, suspension) | 0.422 | 7.09 | 0.995 | < 5.30 | 0.85 | 5.33 | – | – | – | – |
| BT-549 (breast, adherent) | 0.668 | 6.35 | 0.921 | < 5.30 | 0.734 | 5.41 | – | – | – | – |
| CADO-ES1 (Ewing sarcoma, suspension) | 0.95 | < 5.70 | 0.985 | < 5.30 | 0.813 | 5.26 | 0.725 | 5.35 | 0.894 | < 4.99 |
| CL-34 (large intestine, adherent) | 0.874 | < 5.70 | 0.983 | < 5.30 | 0.827 | 5.16 | – | – | – | – |
| CL-40 (large intestine, adherent) | 0.825 | < 5.70 | 0.929 | < 5.30 | 0.798 | 5.03 | – | – | – | – |
| CML-T1 (chronic myeloid leukaemia, suspension) | 0.488 | 6.93 | 0.97 | < 5.30 | 0.778 | 5.47 | – | – | – | – |
| COR-L321 (lung, suspension) | 0.97 | < 5.70 | 0.953 | < 5.30 | 0.884 | < 5.00 | 0.856 | 4.89 | 0.779 | 5.38 |
| CRO-AP2 (B-cell lymphoma, suspension) | 0.547 | 6.78 | 0.989 | < 5.30 | 0.499 | 6.21 | – | – | – | – |
| DIFI (large intestine, adherent) | 0.69 | 6.36 | 0.986 | < 5.30 | 0.774 | 5.39 | – | – | – | – |
| EMC-BAC-1 (lung adenocarcinoma, adherent) | 0.595 | 6.63 | 0.913 | < 5.30 | 0.603 | 5.90 | 0.804 | 5.03 | 0.748 | 5.43 |
| EMC-BAC-2 (lung adenocarcinoma, adherent) | 0.608 | 6.58 | 0.796 | 5.55 | 0.667 | 5.70 | 0.856 | < 4.80 | 0.941 | < 4.99 |
| ESO26 (oesophagus, adherent) | 0.725 | 6.28 | 0.988 | < 5.30 | 0.806 | 5.32 | 0.716 | 5.41 | 0.641 | 5.82 |
| ESO51 (oesophagus, semi-adherent) | 0.526 | 6.82 | 0.973 | < 5.30 | 0.916 | < 5.00 | 0.817 | 4.85 | 0.944 | < 4.99 |
| EW-22 (Ewing sarcoma, adherent) | 0.73 | 6.26 | 0.987 | < 5.30 | 0.647 | 5.80 | – | – | – | – |
| HCC-366 (non-small cell lung carcinoma, adherent) | 0.779 | 6.07 | 0.981 | < 5.30 | 0.76 | 5.44 | – | – | – | – |
| IGROV-1 (ovary, adherent) | 0.577 | 6.65 | 0.926 | < 5.30 | 0.824 | < 5.00 | – | – | – | – |

| Cell Line | AUC (AZD7762) | pIC50 (AZD7762) | AUC (XAV 939) | pIC50 (XAV 939) | AUC (YK 4-279) | pIC50 (YK 4-279) | AUC (BMS-345541) | pIC50 (BMS-345541) | AUC (NPK76-II-72-1) | pIC50 (NPK76-II-72-1) |
| --- | --- | --- | --- | --- | --- | --- | --- | --- | --- | --- |
| JEKO-1 (B-cell lymphoma, suspension) | 0.298 | 7.46 | 0.983 | < 5.30 | 0.567 | 6.02 | – | – | – | – |
| JHOS-3 (ovary, adherent) | 0.78 | 5.97 | 0.912 | < 5.30 | 0.894 | < 5.00 | 0.915 | < 4.80 | 0.954 | < 4.99 |
| Jurkat (T-cell leukaemia, suspension) | 0.751 | 6.25 | – | – | 0.569 | 6.03 | – | – | – | – |
| KARPAS-1106P (B-cell lymphoma, suspension) | 0.513 | 6.87 | 0.993 | < 5.30 | 0.86 | 5.21 | – | – | – | – |
| KMS-11 (myeloma, suspension) | 0.568 | 6.73 | 0.987 | < 5.30 | 0.629 | 5.87 | 0.841 | 5.05 | 0.879 | 5.10 |
| KNS-62 (lung squamous cell carcinoma, adherent) | 0.709 | 6.19 | 0.854 | < 5.30 | 0.775 | 5.23 | – | – | – | – |
| KYAE-1 (oesophagus, suspension) | 0.776 | 6.05 | 0.978 | < 5.30 | 0.974 | < 5.00 | 0.87 | < 4.80 | 0.762 | 5.39 |
| MEL-HO (melanoma, adherent) | 0.785 | 6.06 | 0.98 | < 5.30 | 0.72 | 5.58 | – | – | – | – |
| MHH-CALL-2 (B-cell leukaemia, suspension) | 0.509 | 6.88 | 0.997 | < 5.30 | 0.91 | 5.13 | – | – | – | – |
| MKN7 (stomach, adherent) | 0.816 | 5.79 | 0.976 | < 5.30 | 0.96 | < 5.00 | – | – | – | – |
| MOLM-16 (acute myeloid leukaemia, suspension) | 0.537 | 6.81 | 0.966 | < 5.30 | 0.474 | 6.27 | – | – | – | – |
| MOLT-13 (T-cell lymphoblastic leukaemia, suspension) | 0.718 | 6.33 | 0.984 | < 5.30 | 0.625 | 5.88 | 0.736 | 5.37 | 0.254 | 6.85 |
| MOLT-16 (T-cell lymphoblastic leukaemia, suspension) | 0.527 | 6.84 | 0.974 | < 5.30 | 0.482 | 6.25 | – | – | – | – |
| NCC010 (kidney, adherent) | 0.646 | 6.49 | 0.892 | < 5.30 | 0.739 | 5.50 | – | – | – | – |
| NCC021 (kidney, adherent) | 0.744 | 6.15 | 0.947 | < 5.30 | 0.779 | 5.32 | 0.957 | < 4.80 | 0.917 | < 4.99 |
